The results in this text go back to article PMC4336329 (PLoS ONE, 2015).

The campaign covered roughly 310,000 compounds. About 14,000 (4.5%) showed an effect of 50% or more. Effects have a minus sign here. Some of the results follow.
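Also: peak tail current of the secondary pulse compared with the same well before compound.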

The target in the experiment is human ether-à-go-go-related gene (hERG) potassium channel (human, UniProt Q12809). Kind of experiment: primary screen, population patch clamp on CHO cells stably expressing hERG.
human ether-à-go-go-related gene (hERG) potassium channel, sequence (Q12809 whole entry, looked up): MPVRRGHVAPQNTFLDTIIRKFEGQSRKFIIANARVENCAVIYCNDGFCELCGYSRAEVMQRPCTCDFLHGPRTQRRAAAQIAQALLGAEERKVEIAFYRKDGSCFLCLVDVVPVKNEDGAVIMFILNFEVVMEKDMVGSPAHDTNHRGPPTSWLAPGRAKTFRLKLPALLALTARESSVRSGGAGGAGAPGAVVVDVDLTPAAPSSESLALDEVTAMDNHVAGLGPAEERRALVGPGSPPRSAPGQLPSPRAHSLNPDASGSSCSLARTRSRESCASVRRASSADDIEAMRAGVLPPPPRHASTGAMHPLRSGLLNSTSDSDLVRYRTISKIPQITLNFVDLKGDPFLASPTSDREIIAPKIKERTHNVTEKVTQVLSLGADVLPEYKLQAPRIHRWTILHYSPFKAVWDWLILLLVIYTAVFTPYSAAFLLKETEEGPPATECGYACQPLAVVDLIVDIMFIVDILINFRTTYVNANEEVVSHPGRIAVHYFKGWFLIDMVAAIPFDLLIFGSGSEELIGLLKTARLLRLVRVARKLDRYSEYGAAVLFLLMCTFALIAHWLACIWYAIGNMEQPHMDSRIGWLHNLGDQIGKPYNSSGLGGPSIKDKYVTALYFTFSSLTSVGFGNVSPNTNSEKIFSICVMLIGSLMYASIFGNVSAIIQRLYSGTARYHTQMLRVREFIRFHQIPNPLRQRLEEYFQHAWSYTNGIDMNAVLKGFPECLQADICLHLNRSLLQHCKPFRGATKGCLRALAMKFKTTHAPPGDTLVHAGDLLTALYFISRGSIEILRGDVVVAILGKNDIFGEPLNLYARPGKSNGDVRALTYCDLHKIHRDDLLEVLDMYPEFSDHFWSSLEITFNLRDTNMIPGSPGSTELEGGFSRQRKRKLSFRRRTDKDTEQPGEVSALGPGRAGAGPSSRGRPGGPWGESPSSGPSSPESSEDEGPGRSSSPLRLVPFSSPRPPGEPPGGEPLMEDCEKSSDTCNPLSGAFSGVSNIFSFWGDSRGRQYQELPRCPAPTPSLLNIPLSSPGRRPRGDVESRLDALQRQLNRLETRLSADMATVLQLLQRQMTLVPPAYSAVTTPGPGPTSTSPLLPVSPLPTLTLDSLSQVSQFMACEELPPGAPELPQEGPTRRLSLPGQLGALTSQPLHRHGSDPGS
As to `FC(F)(F)c1cccc(NC(=S)NCc2ccccn2)c1`, the “hERG current change (%, negative = inhibition) at 10uM” value came to 2.89%.

As for `CCOC(=O)c1cc(-c2cccnc2)nn1-c1ccccn1`, the “hERG current change (%, negative = inhibition) at 10uM” value worked out at 0.506%.

`COc1ccc(C(=O)Nc2nc3cc(OC)c(OC)cc3c(=O)[nH]2)cc1`: the “hERG current change (%, negative = inhibition) at 10uM” value is 8.77%.

`O=C(Nc1nnc(C2CC2)s1)c1cc(S(=O)(=O)N2CCN(c3ccccc3)CC2)ccc1Cl`: the “hERG current change (%, negative = inhibition) at 10uM” value is given as -0.722%.

As for `CC1CCCN1CC#CC(O)(c1ccccc1)c1ccccc1.Cl` (centres unmarked), the “hERG current change (%, negative = inhibition) at 10uM” value is recorded as -60.7%.

Turning to `O=C(NCC(c1cccnc1)N1CCOCC1)Nc1ccccc1` (centres unmarked), the “hERG current change (%, negative = inhibition) at 10uM” value stood at 12.4%.

With `C=CCNCc1ccc(C(=O)NCCCCCCC)cc1[N+](=O)[O-]`, the “hERG current change (%, negative = inhibition) at 10uM” value is -48.9%.

Take `CCOC(=O)c1ccc(NC(=O)COc2ccc(S(=O)(=O)N3CCCC3)cc2)cc1`: the “hERG current change (%, negative = inhibition) at 10uM” value is listed as -10.3%.

On to `COc1ccccc1NC(=O)N1CCN(c2ccc3nnc(-c4ccc(F)cc4)n3n2)CC1`, for which the “hERG current change (%, negative = inhibition) at 10uM” value is recorded as -68.9%.

With `COC(=O)C1=CO[C@@H](OC2OC(CO)C(O)C(O)C2O)[C@@H]2[C@@H](C)[C@@H](O)C[C@H]12` (some centres unmarked), the “hERG current change (%, negative = inhibition) at 10uM” value is given as 5.74%.

Consider `COc1ccc(Cl)cc1NC(=O)CN1CCCCCC1`, for which the “hERG current change (%, negative = inhibition) at 10uM” value is -8.36%.

As to `CN(C)CCCNc1ncnc2scc(-c3ccccc3)c12.O=C(O)C(=O)O`, the “hERG current change (%, negative = inhibition) at 10uM” value was -27.9%.

For `O=C(Nc1ccc(NC(=O)c2cccnc2)cc1)c1ccccc1`, the “hERG current change (%, negative = inhibition) at 10uM” value is listed as -6.08%.

On to `COc1ccc(CC(=O)NNC(=O)c2cnccn2)cc1`, for which the “hERG current change (%, negative = inhibition) at 10uM” value was determined as 13.6%.

With `COC(=O)C1=C(C(=O)OC)C2(OC1c1cccc(F)c1)C(=O)c1ccccc1C2=O` (centres unmarked), the “hERG current change (%, negative = inhibition) at 10uM” value is 6.43%.

For the compound `O=C(CSc1ccc(Cl)cc1)Nc1cccc(-c2nnc(-c3ccco3)o2)c1`, the “hERG current change (%, negative = inhibition) at 10uM” value came out at 9.64%.

`O=c1cc(-c2ccc(O)cc2)oc2cc(O)c(C3OC(CO)C(O)C(O)C3O)c(O)c12` (centres unmarked): the “hERG current change (%, negative = inhibition) at 10uM” value was 10.4%.

For `CCCCN1CCNC[C@@H]1Cc1ccccc1`, the “hERG current change (%, negative = inhibition) at 10uM” value worked out at 10.1%.

`CCOC(=O)C(=CNc1ccc(C#N)cc1)C(=O)OCC`: the “hERG current change (%, negative = inhibition) at 10uM” value is reported as -45.3%.

For the compound `COc1ccccc1NC(=O)Nc1ccc(NC(=O)c2ccccc2O)cc1`, the “hERG current change (%, negative = inhibition) at 10uM” value is recorded as 0.427%.

With `CCOc1ccc(N(CC(=O)Nc2ccc(OC)cc2)S(C)(=O)=O)cc1`, the “hERG current change (%, negative = inhibition) at 10uM” value came out at 3.39%.

For `NS(=O)(=O)c1ccc(NC(=S)NC(=O)c2cccnc2)cc1`, the “hERG current change (%, negative = inhibition) at 10uM” value was 14.9%.

As to `S=C(NCc1ccccc1)Nc1ccc(Cl)cc1`, the “hERG current change (%, negative = inhibition) at 10uM” value is given as -25.1%.

With `Cc1cccnc1NC(=S)Nc1ccc(Cl)c(Cl)c1`, the “hERG current change (%, negative = inhibition) at 10uM” value worked out at 5.76%.

Regarding `COC(=O)c1cccc(NC(=O)c2ccc3c(c2)C(=O)N(CC2CCCO2)C3=O)c1` (centres unmarked), the “hERG current change (%, negative = inhibition) at 10uM” value was -24.3%.

Turning to `CC(C)(C)Nc1nc(SCC(=O)Nc2ccccc2)nc(N2CCOCC2)n1`, the “hERG current change (%, negative = inhibition) at 10uM” value amounted to 8.08%.

Turning to `CCN(CC)S(=O)(=O)c1ccc(N/N=C/c2ccc(O)cc2O)nc1`, the “hERG current change (%, negative = inhibition) at 10uM” value came out at 4.31%.

On to `Cn1cc(CN2CCC(n3nccc3NC(=O)c3ccccc3Cl)CC2)c2ccccc21`, for which the “hERG current change (%, negative = inhibition) at 10uM” value is -68.6%.

Take `O=C(N/C(=C/c1cccnc1)C(=O)N1CCOCC1)c1ccco1`: the “hERG current change (%, negative = inhibition) at 10uM” value is listed as 6.59%.

`O=C(OCCc1cc2ccccc2c(=O)o1)c1ccccc1C(F)(F)F`: the “hERG current change (%, negative = inhibition) at 10uM” value is -0.264%.

Turning to `Cc1ccccc1N(C(=O)c1ccccn1)C(C(=O)NCc1ccccc1)c1ccncc1` (centres unmarked), the “hERG current change (%, negative = inhibition) at 10uM” value is 9.38%.

For `CCc1ccc2[nH]c(=O)c(C(c3nnnn3Cc3ccccc3)N3CCOCC3)cc2c1` (centres unmarked), the “hERG current change (%, negative = inhibition) at 10uM” value is reported as -23.4%.

With `COc1ccc([N+](=O)[O-])cc1NC(=O)c1cccnc1`, the “hERG current change (%, negative = inhibition) at 10uM” value is -7.96%.

On to `O=C(COC(=O)C1(c2ccc(F)cc2)CCCC1)NC1CC1`, for which the “hERG current change (%, negative = inhibition) at 10uM” value came out at 0.676%.

Turning to `Cn1c(NC(=O)COc2ccccc2)cc(=O)n(C)c1=O`, the “hERG current change (%, negative = inhibition) at 10uM” value was 4.97%.

As to `Cc1c(C(=O)/C=C/N(C)C)nnn1-c1ccc(F)c(Cl)c1`, the “hERG current change (%, negative = inhibition) at 10uM” value came out at 2.73%.

Regarding `O=C(CN1CCCCC1)N/N=C/c1cccc(C(F)(F)F)c1`, the “hERG current change (%, negative = inhibition) at 10uM” value is -38.9%.

Regarding `CCN(C(=S)NCCOC)c1cccc2ccccc12`, the “hERG current change (%, negative = inhibition) at 10uM” value is reported as 8.8%.

Take `O=C(N/N=C/c1ccco1)C(O)c1ccccc1` (centres unmarked): the “hERG current change (%, negative = inhibition) at 10uM” value worked out at 9.77%.

Consider `S=C(NCCc1ccccc1)Nc1ccccc1N1CCOCC1`, for which the “hERG current change (%, negative = inhibition) at 10uM” value was found to be 5.74%.

As to `Fc1cccc(/C=N/n2c(C3CCCCC3)n[nH]c2=S)c1`, the “hERG current change (%, negative = inhibition) at 10uM” value turned out to be 13.3%.

For `CC1=C(C(=O)Nc2ccccc2)C(c2cccnc2)n2ncnc2N1` (centres unmarked), the “hERG current change (%, negative = inhibition) at 10uM” value amounted to 13.7%.

In the case of `Cc1ccc(NC(=O)CCSc2nnnn2-c2ccc3c(c2)OCO3)cc1C`, the “hERG current change (%, negative = inhibition) at 10uM” value is listed as -16.3%.

On to `CCc1nc2sc3c(O)cc(=O)[nH]c3c2cc1C`, for which the “hERG current change (%, negative = inhibition) at 10uM” value came out at 12%.
